According to paper PMC6919601, “Identification of Plasmodium dipeptidyl aminopeptidase allosteric inhibitors by high throughput screening” (PLoS ONE, 2019):
The campaign covered roughly 110,000 compounds. About 230 (0.21%) showed an effect of 50% or more. The list shows a part of the results.

These molecules were tested against DPAP1 (Plasmodium falciparum, UniProt Q8IIJ9) (assay: primary screen, percent inhibition; read by cleavage of a fluorogenic dipeptide substrate; higher = more effect of the substance).
Chain of DPAP1 (Q8IIJ9 whole entry, looked up): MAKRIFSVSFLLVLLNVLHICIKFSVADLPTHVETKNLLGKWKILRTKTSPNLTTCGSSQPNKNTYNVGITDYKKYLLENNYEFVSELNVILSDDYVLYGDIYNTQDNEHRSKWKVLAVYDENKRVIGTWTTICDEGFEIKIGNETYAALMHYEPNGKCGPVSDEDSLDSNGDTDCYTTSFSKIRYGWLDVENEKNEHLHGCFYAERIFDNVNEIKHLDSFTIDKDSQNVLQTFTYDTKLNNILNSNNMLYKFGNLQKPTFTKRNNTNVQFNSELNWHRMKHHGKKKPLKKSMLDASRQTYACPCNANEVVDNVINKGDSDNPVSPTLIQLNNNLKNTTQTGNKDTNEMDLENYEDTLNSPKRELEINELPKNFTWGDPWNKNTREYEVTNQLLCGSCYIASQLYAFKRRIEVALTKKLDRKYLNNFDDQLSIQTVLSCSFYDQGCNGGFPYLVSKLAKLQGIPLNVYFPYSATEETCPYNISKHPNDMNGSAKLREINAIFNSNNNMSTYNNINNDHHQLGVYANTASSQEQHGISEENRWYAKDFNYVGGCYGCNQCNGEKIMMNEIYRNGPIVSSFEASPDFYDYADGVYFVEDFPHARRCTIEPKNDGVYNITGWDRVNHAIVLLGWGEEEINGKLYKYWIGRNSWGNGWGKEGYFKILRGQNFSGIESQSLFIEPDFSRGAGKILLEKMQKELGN
Set-up: species or system P. falciparum D10 trophozoite lysates; single well
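Further: 30 min substrate incubation versus DMSO and 10 µM JCP410 controls.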

SMILES	% Inhibition @ 10 uM [%]
Nc1nc2ccc(Cc3nc4ccccc4[nH]3)cc2s1	7.02
COc1ccc(C/N=C/C2C(=O)N(c3nc4ccccc4s3)N=C2c2ccccc2)cc1 (stereo not drawn)	3.59
Oc1cc(CN2CCCCCC2)c(O)cc1CN1CCCCCC1	-5.96
CCn1c(C)cc(/C=C2\SC(Nc3ccccc3)=NC2=O)c1C	-1.46
CN(CC(=O)NCCc1ccccc1)S(=O)(=O)c1cccs1	0.559
CCN1CCN(C(=O)c2cc(-c3ccc(C)cc3)nc3ccccc23)CC1	0.826
CC(NC(=O)Cc1noc2ccccc12)c1ccccc1 (stereo not drawn)	0.943
CN(C(=O)C1CCC(CNS(=O)(=O)c2cccc3cccnc23)CC1)C1CCCCC1 (stereo not drawn)	2.6
COc1ccc(CCNC(=O)C2CCN(S(=O)(=O)c3c[nH]cn3)CC2)cc1OC	1.23
Cc1cc2c(cc3c(SCc4ccccc4F)nnc(C)n32)o1	2
Cc1ccc(OCCCN2CCOCC2)cc1C	-4.95
Cc1ccc(S(=O)(=O)NCC2c3ccccc3CCN2S(=O)(=O)c2ccc(C)cc2)cc1 (stereo not drawn)	-3.75
O=C(Nc1c(C(=O)N2CCN(c3ncccn3)CC2)oc2ccccc12)C1CCCCC1	-1.25
Cc1c2cnn(CC(=O)N3CCN(C(=O)c4ccco4)CC3)c(=O)c2c(C)n1Cc1ccccc1	1.22
Cc1cccn2c(=O)c3cc(C(=O)NC4CCCCC4)c(=N)n(CCc4ccccc4)c3nc12	0.279
Cc1cc(COc2ccccc2OCCN2CCN(C)CC2)no1	2.14
CCOc1cc(C(=O)N(Cc2nc(-c3ccc(Cl)cc3)no2)C(C)C)cc(OCC)c1OCC	2.78
CCOc1ccc(S(=O)(=O)N(CC(=O)NC2CC3CCC2C3)c2ccccc2)cc1 (stereo not drawn)	-0.992
O=C(Cn1c(=O)oc2ccccc21)c1ccccc1	-8.64
COc1cc2c(cc1OC)C(COc1ccccc1OC)N(C(=O)CSCc1ccccc1)CC2 (stereo not drawn)	3.8
O=C(NCCc1ccccc1)c1cc(Br)cs1	0.219
O=C(CSc1nc2ccsc2c(=O)n1Cc1ccccc1)N1CCCC1	3.86
Cc1nc2nc(SCC(=O)NCCc3ccccc3)nn2c(C)c1Cc1ccccc1	4.36
c1ccc2c3c([nH]c2c1)C(c1ccc2c(c1)OCO2)NCC3 (stereo not drawn)	1.21
CCc1n[nH]c(SCC(=O)c2ccc(OC)cc2)n1	5.59
O=Cc1cn(Cc2nc(-c3ccc(Br)cc3)no2)c2ccccc12	-3.06
CC(=O)NCCOc1ccccc1F	-2.02
